Measured values taken from patent US4022891A (priority 1974, dated 1977).

Assays:
[1] = system: Serum Ca; assay: Total calcium concentration in the serum (Example 32, Table 5); assay type: in vivo, Male wistar rats
From the text: (§1) Male wistar rats (each with a body weight of about 150 g) were subcutaneously administered with an aqueous solution of ^45 CaCl2 in a dose of 50 μCi per rat, and kept for 6 weeks. ^45 Ca so administered was rapidly absorbed, and a greater portion of it gathered at the bones in several hours. Three weeks later, the ^45 Ca level in blood became constant, and only the bones were in the specifically labelled state. This was confirmed by a macroautoradiographic analysis of the whole body. […] Blood was taken out with the passage of time, and the serum radioactivity level was measured by the method described in Example 29 (a). An increase in the serum radioactivity level was made an index of the effect of bone absorption. The control group was administered with corn oil alone. The number of rats tested was 4 in each group. In this figure, the symbol * indicates a significant difference in serum radioactivity level from the control.
(§2) A similar test to Example 31 was performed on the above four compounds. Unlike Example 31, the experiment was begun three weeks after the administration of ^45 CaCl2. Both the serum radioactivity level and the total calcium concentration in the serum were measured. For the measurement of the calcium concentration, a calcium measuring kit (made by Iatron Company) was used.

[2] = system: intestinal calcium absorption; assay: Intestinal calcium absorption by the everted gut sac method (duodenum) after oral dosing (Examples 29 (b) and 30); details: for ^45 Ca (S/M): Table 2, 625 p moles oral, 8 hours, control 1.29 ± 0.16; for Effect of promoting intestinal calcium absorption (everted gut sac): Table 3, control 3.31 ± 0.12; for intestinal calcium absorption/transport promoting activity, comparative: in words; for Effect of promoting intestinal calcium absorption, activity of 1α-HCC set at 1: Table 7, Examples 29 to 33
[3] = system: bone absorption; assay: Bone absorbing effect: serum 45Ca level in 45Ca-labelled rats (Example 32, Table 4); assay type: in vivo, Male wistar rats; details: for bone absorbing effect / bone resorption, comparative: in words; for Bone absorbing effect, activity of 1α-HCC set at 1: Table 7, Examples 29 to 33
Description: An increase in the serum radioactivity level was made an index of the effect of bone absorption. The control group was administered with corn oil alone. The number of rats tested was 4 in each group. In this figure, the symbol * indicates a significant difference in serum radioactivity level from the control.
Both the serum radioactivity level and the total calcium concentration in the serum were measured. For the measurement of the calcium concentration, a calcium measuring kit (made by Iatron Company) was used.

[4] = in words; prior knowledge; cited from earlier work
[5] = system: intestinal calcium transport; assay: Effect of promoting intestinal calcium transport: serum radioactivity after oral 45CaCl2 (Example 29 (a)); assay type: in vivo, Male Wistar rats; details: for Radioactivity in serum: 625 p moles oral
Description: (a) Comparison with 1α-hydroxycholecalciferol (1α-HCC)
After a predetermined period of time, a solution of radioactive calcium chloride (^45 Ca Cl2, 30 μCi/ml) was administered orally. The radioactivity level in blood was measured over the course of 10 to 60 minutes. The maximum value was made an index of intestinal calcium absorption.
A control group of rats was administered with corn oil alone in the same amount.
The radioactivity level was measured by placing 0.2 ml. of serum in a Vial bottle, adding 12 ml. of a cocktail containing a scintillator (containing 1200 ml of toluene, 800 ml of ethyl cellosolve, 8 g of 2,5-diphenyloxazole, and 300 mg of 2,2'-p-phenylenebis(5-phenyloxazole)), and determining the radioactivity by means of a liquid scintillation counter.

[6] = system: bone absorption; assay: Bone absorption effect: increase in serum 45Ca radioactivity in 45Ca-labelled rats, continuous oral dosing (Example 31, FIG. 6); assay type: in vivo, Male wistar rats
From the text: as §1

[7] = Body weight change (Example 32, FIG. 7); assay type: in vivo, Male wistar rats; details: in words; for change in body weight: FIG. 7
From the text: as §1, §2

[8] = system: intestinal calcium transport; details: in words; found in vivo; cited from earlier work
[9] = in vivo; details: mouse, in vivo, ID50, mouse
Description: (§3) The toxicity of each of the above two compounds was tested by a well known method.

[10] = system: Mouse; assay: in vivo; details: Table 7; Examples 29 to 33
Description: as §3

Row | Structure (SMILES) | Serum Ca ([1]; 0 days, control 11.4 ± 0.32) [mg/dL] | Serum Ca ([1]; 5 days, control 10.0 ± 0.29) [mg/dL] | Serum Ca ([1]; 7 days, control 11.1 ± 0.22) [mg/dL] | Serum Ca ([1]; 9 days, control 10.6 ± 0.15) [mg/dL] | ^45 Ca (S/M) [2] | Effect of promoting intestinal calcium absorption (everted gut sac) ([2]; dose 125 p mole) | Effect of promoting intestinal calcium absorption (everted gut sac) ([2]; dose 625 p mole) | Effect of promoting intestinal calcium absorption (everted gut sac) ([2]; dose 3,125 p mole) | intestinal calcium absorption/transport promoting activity, comparative [2] | Serum ^45 Ca level, serum radioactivity ([3]; 0 days, control 699 ± 53.7) [cpm] | Serum ^45 Ca level, serum radioactivity ([3]; 5 days, control 621 ± 48.6) [cpm] | Serum ^45 Ca level, serum radioactivity ([3]; 7 days, control 597 ± 33.9) [cpm] | Serum ^45 Ca level, serum radioactivity ([3]; 9 days, control 600 ± 49.3) [cpm] | bone absorbing effect / bone resorption, comparative [3] | activity as analogs of active forms of vitamin D3 [4] | toxicity [4] | Effect of promoting intestinal calcium absorption, activity of 1α-HCC set at 1 [2] | Radioactivity in serum ([5]; 4 hours after administration) [cpm] | Radioactivity in serum ([5]; 8 hours after administration) [cpm] | Radioactivity in serum ([5]; 12 hours after administration) [cpm] | other results
1 | C=C1/C(=C\C=C2/CCC[C@]3(C)[C@@H]([C@H](C)CC[C@@H](O)C(C)C)CC[C@@H]23)C[C@@H](O)C[C@@H]1O [1α,24(R)-DHCC, 1α,24(R)-dihydroxycholecalciferol] | 11.3 ± 0.35 | 12.6 ± 0.23 | 13.3 ± 0.25 | 12.8 ± 0.35 | 5.86 ± 1.98 | 4.42 ± 0.41 | 5.93 ± 0.33 | 5.84 ± 0.39 | greater effect of promoting intestinal calcium absorption than 1α,24(S)-DHCC and 1α,24(R)-DHCC > 1α,24-DHCC > 1α,24(S)-DHCC | 648 ± 44.3 | 874 ± 30.4 | 778 ± 26.9 | 681 ± 63.7 | 1α,24(R)-DHCC > 1α,24-DHCC > 1α,24(S)-DHCC |  |  |  |  |  |  | 
2 | C=C1/C(=C\C=C2/CCC[C@]3(C)[C@@H]([C@H](C)CCCC(C)(C)O)CC[C@@H]23)C[C@@H](O)C[C@@H]1O [1α,25-DHCC, 1α,25-dihydroxycholecalciferol] |  |  |  |  |  |  |  |  |  |  |  |  |  |  | superior activites as analogs of active forms of vitamin D3 | at least as toxic as 1α-HCC |  |  |  |  | 
3 | C=C1/C(=C\C=C2/CCC[C@]3(C)[C@@H]([C@H](C)CCC(O)C(C)C)CC[C@@H]23)C[C@@H](O)C[C@@H]1O (stereo partly drawn) [1α,24-DHCC, 1α,24-dihydroxycholecalciferol] | 11.7 ± 0.26 | 12.9 ± 0.18 | 11.5 ± 0.23 | 12.1 ± 0.19 |  | 4.12 ± 0.25 | 4.84 ± 0.32 | 5.47 ± 0.33 | at least an equivalent activity to 1α-HCC and 1α,24(R)-DHCC > 1α,24-DHCC > 1α,24(S)-DHCC | 675 ± 54.9 | 948 ± 64.6 | 700 ± 32.8 | 661 ± 78.8 | far weaker in bone absorbing effect than 1α-HCC and 1α,24(R)-DHCC > 1α,24-DHCC > 1α,24(S)-DHCC |  |  | 1 | 360 ± 150 | 996 ± 80 | 924 ± 130 | Radioactivity in serum ([5]; 24 hours after administration): 426 ± 61 cpm; promotion of intestinal calcium absorption compared with 1α-HCC ([5]; in words): nearly an equivalent effect to 1α-HCC; time after start of administration at which bone absorption increased significantly ([6]; 2,125 P moles once a day oral, FIG. 6): 4 days; toxicity suggested by bone absorption ([6]; in words): lower in toxicity; bone absorbing effect compared with 1α-HCC ([6]; in words, FIG. 6): weaker bone absorbing effect than 1α-HCC; toxicity suggested by body weight change [7]: lower than that of 1α-HCC; change in body weight [7]: lesser degree of change in body weight than 1α,-HCC; Bone absorbing effect, activity of 1α-HCC set at 1 [3]: 1/3; bone absorbing effect / bone resorption, comparative ([3]; listed as 1α-24-DHCC): weak bone absorbing effect as compared with the known analogs of active form of vitamin D3
4 | C=C1/C(=C\C=C2/CCC[C@]3(C)[C@@H]([C@H](C)CCC(O)C(C)(C)O)CC[C@@H]23)C[C@@H](O)C[C@@H]1O (stereo partly drawn) [1α,24,25-THCC, 1α,24,25-trihydroxycholecalciferol] |  |  |  |  |  |  |  |  |  |  |  |  |  |  |  |  |  |  |  |  | promoting effect on intestinal calcium transport [8]: fairly selective, although not so strong, promoting efffect on intestinal calcium transport
5 | C=C1/C(=C\C=C2/CCC[C@]3(C)[C@@H]([C@H](C)CC[C@H](O)C(C)C)CC[C@@H]23)C[C@@H](O)C[C@@H]1O [1α,24(S)-DHCC, 1α,24(S)-dihydroxycholecalciferol] | 11.2 ± 0.16 | 11.5 ± 0.33 | 11.2 ± 0.29 | 11.5 ± 0.24 | 2.68 ± 0.80 | 3.97 ± 0.28 | 4.17 ± 0.31 | 5.18 ± 0.20 |  | 780 ± 43.5 | 539 ± 45.2 | 520 ± 53.8 | 609 ± 91.5 |  |  |  |  |  |  |  | change in body weight [7]: little difference from the control group
6 | C=C1/C(=C\C=C2/CCC[C@]3(C)[C@@H]([C@H](C)CCCC(C)C)CC[C@@H]23)C[C@@H](O)C[C@@H]1O [1α-HCC, 1α-hydroxycholecalciferol, reference compound] | 10.4 ± 0.21 | 14.1 ± 0.29 | 14.7 ± 0.33 | 13.8 ± 0.41 |  | 3.59 ± 0.23 | 4.10 ± 0.27 | 5.10 ± 0.27 |  | 690 ± 39.4 | 1056 ± 66.8 | 1184 ± 51.1 | 904 ± 57.1 |  | superior activites as analogs of active forms of vitamin D3 | very high toxicity | 1 | 697 ± 221 | 1035 ± 150 | 643 ± 210 | LD50 ([9]; iv, o + (female), intravenous): 0.1 mg/kg; LD50 ([9]; iv, o^+ (male), intravenous): 0.167 mg/kg; LD50 ([9]; po, o + (female), peros): 0.508 mg/kg; LD50 ([9]; po, o^+ (male), peros): 0.474 mg/kg; Acute toxicity, 1α-HCC set at 1 [10]: 1; Radioactivity in serum ([5]; 24 hours after administration): 332 ± 28 cpm; Bone absorbing effect, activity of 1α-HCC set at 1 [3]: 1

“And” between values parts separate entries of the source, which are not always exact repeats. Equal entries are not always repeated.
